Some entries of the source have several records that differ or are many. The other results are left out here. There may be further records. Values that stand side by side repeat one measurement across runs, samples, wells, individuals or studies. Records carry a tag for their origin. Letters count within one entry.
Organism: Rattus norvegicus
Assay: DrugMatrix - Regimen: Daily Repeat
Type: toxicity, organism-based, Sprague-Dawley
Design: regimen Daily Repeat, gender Male, age 6-8 weeks
Conditions: in vivo, 0 mg/kg, dose level Control, vehicle 100 % SALINE
[1] = iv, 120 h, tissue Blood, time 5 day

## C=CCO [ALLYL ALCOHOL]
ip, 72 h, tissue Blood, route intraperitoneal, time 3 day
  ABSOLUTE EOSINOPHIL: 0 CELLS/uL [study A] and 15 CELLS/uL [study B]

## CC(=O)[C@]1(O)Cc2c(O)c3c(c(O)c2[C@@H](O[C@H]2C[C@H](N)[C@H](O)[C@H](C)O2)C1)C(=O)c1ccccc1C3=O [IDARUBICIN]
[1]
  ABSOLUTE BASOPHIL: 0.23 CELLS/uL [study A] and 0 CELLS/uL [study B]
  ABSOLUTE EOSINOPHIL: 0.0375 CELLS/uL [study A] and 158.83 CELLS/uL [study B]
  ABSOLUTE LYMPHOCYTE: 12.19 CELLS/uL [study A] and 13517.17 CELLS/uL [study B]
  ABSOLUTE MONOCYTE: 0.66 CELLS/uL [study A] and 352.67 CELLS/uL [study B]
  NEUTROPHIL: 30.45% [study A] and 7.17% [study B]
iv, 120 h, tissue Plasma, time 5 day
  LIPASE: 50 u/L [study A] and 8.67 u/L [study B]

Source: ChEMBL document CHEMBL3885881, “DrugMatrix”
